Measured values reported in PubChem BioAssay AID488969 (Vanderbilt High Throughput Screening Facility, 2010).
In all, about 110,000 compounds were measured (“z-score”: median about -0.1, highest 2% from about 2 on). This is one part of the list. Activity calls are given as the source filed them.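 Rule for the calls: active = z-score in the third read window above 3 or below -3; inactive = the rest.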

The molecules below were run against Metabotropic glutamate receptor 8 (Rattus norvegicus) (UniProt P70579) (assay: mGluR8 Gi/Go-coupled signaling modulation – cell-based, rat, thallium flux, HTS, primary screen (AID 488969)). Conditions: HEK293 rat mGluR8, GIRK (G protein-gated inwardly rectifying potassium channel) thallium flux, FluoZin2; at 10 µM; stronger effect = higher value; submaximal glutamate (EC20) added with thallium.
Chain of UniProt P70579 (P70579 whole entry, looked up): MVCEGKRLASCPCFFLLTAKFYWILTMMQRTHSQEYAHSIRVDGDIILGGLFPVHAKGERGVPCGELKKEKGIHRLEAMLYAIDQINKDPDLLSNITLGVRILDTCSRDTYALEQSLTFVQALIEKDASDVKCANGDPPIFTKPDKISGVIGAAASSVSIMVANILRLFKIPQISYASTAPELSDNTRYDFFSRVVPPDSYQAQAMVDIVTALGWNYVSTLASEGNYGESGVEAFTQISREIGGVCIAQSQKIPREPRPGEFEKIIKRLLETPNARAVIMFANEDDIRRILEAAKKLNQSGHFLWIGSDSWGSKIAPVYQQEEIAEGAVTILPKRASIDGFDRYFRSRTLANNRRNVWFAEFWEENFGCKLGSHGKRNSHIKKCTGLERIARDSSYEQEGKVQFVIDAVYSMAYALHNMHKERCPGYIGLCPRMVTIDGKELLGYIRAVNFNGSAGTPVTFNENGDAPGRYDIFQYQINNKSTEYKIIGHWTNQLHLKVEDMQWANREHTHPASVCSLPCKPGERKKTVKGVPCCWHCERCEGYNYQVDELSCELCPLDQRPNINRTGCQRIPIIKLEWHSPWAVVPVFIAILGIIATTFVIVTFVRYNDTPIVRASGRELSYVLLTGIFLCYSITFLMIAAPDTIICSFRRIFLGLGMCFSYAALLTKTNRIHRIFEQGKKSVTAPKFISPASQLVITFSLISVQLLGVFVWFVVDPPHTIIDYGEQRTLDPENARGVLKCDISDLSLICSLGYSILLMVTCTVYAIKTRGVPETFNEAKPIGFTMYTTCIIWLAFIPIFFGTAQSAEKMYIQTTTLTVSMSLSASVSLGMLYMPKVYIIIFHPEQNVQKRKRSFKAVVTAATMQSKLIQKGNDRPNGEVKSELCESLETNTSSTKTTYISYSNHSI

Point of comparison: `C=CCn1c(COc2ccccc2F)nnc1SCC(=O)c1c[nH]c2ccccc12`, z-score -0.412. Against it:
- O=C(CCCCCCN1C(=O)c2ccccc2C1=O)NC1CCCCC1 — lower, -0.436
- Cc1cccc(S(=O)(=O)NCC2CCCO2)c1 (stereo unspecified) — higher, 0.496
- COC(=O)c1cc2ccccn2c2c(C(=O)OC)c(C(=O)OC)cc1-2 — higher, 0.219
- COc1ccccc1NC(=S)NCc1ccc2c(c1)OCO2 — higher, -0.0224
- Cc1ccc(S(=O)(=O)N2CCN(C)CC2)c(C)c1N(C)S(=O)(=O)c1ccc(Cl)cc1 — higher, -0.146
- Cc1nn(Cc2c(F)c(F)c(F)c(F)c2F)c(C)c1NC(=O)c1c([N+](=O)[O-])cnn1C — higher, -0.131
- O=C(CN1C(=O)c2ccccc2S1(=O)=O)Nc1ccccc1 — higher, 0.0516
- O=C(N/N=C\c1ccc(OCC(=O)N2CCCC2)cc1)C(=O)Nc1ccccc1F — higher, -0.26
- CSc1nc(-c2ccccc2)nn1S(=O)(=O)c1ccc(Cl)cc1 — higher, -0.00219
- Clc1ccc2oc3c(Cl)ncnc3c2c1 — lower, -0.993
- O=c1[nH]c(=O)n(-c2ccccc2)c2c1C(C(F)(F)F)(C(F)(F)F)N=C(CCC1CCCCC1)N2 — higher, 0.411
- FC(F)(F)c1cc(C(F)(F)F)c2ccc(N3CCN(c4ccc(Cl)cc4)CC3)nc2n1 — higher, -0.0746
- CCCCCC(=O)Nc1ccc2oc(-c3ccncc3)nc2c1 — lower, -0.428
- COc1ccc(NC(=S)Nc2cccc3cnccc23)cc1 — higher, -0.198
- COc1cc(NC(=O)C2CCN(S(=O)(=O)c3cccc4nonc34)CC2)cc(OC)c1 — higher, 0.0561
- COc1ccc(-c2ccc(CCC(=O)O)n2C(C)C)cc1 — higher, -0.109
- CCSc1nnc(-c2ccc(S(=O)(=O)NCc3cccs3)cc2)o1 — higher, -0.0473
- Cn1c(SCC(=O)N2CCCCC2)nc2c([nH]c3ccccc32)c1=O — lower, -0.656
- O=C(Nc1cccc(F)c1)c1ccccc1-c1ccccc1 — higher, -0.369
- CCCCn1c(NCCC)nc2c1c(=O)[nH]c(=O)n2C — higher, -0.188
- O=C(CCn1c(=O)[nH]c2ccsc2c1=O)NCCc1ccc(Cl)cc1 — higher, -0.21
- CCN(CC)S(=O)(=O)c1ccc2oc(Nc3ccc4c(c3)OCCO4)nc2c1 — higher, 0.166
- Cc1ccccc1NC(=O)c1sc2nc3c(c(-c4ccco4)c2c1N)CCCC3 — higher, -0.131
- Fc1ccc2c(c1)C1C=CCC1C(c1cc3c(cc1Br)OCO3)N2 (stereo unspecified) — higher, -0.0336
- NC(=O)C1CCN(C(c2ccccc2)c2nnnn2C2CCCC2)CC1 (stereo unspecified) — higher, 0.328
- Cc1nnc(N)nc1C — higher, 1.02
- Cc1ccc(OCc2nc(C#N)c(N3CCN(Cc4ccccc4)CC3)o2)cc1 — higher, 0.0819
- COC(=O)C1=C(NC(=O)COc2ccc(Cl)cc2Cl)CCS1 — higher, 0.19
- O=C(C[n+]1cccc(CNC(=O)c2ccc(OC(F)F)cc2)c1)Nc1ccccc1Cl — higher, 0.347
- N#Cc1c(C#N)c(-c2ccccc2)n(-c2ccccc2)c1N — higher, -0.317
- Cc1cccc(C(=O)O/N=C(\N)c2ccc(Br)cc2)c1 — higher, -0.121
- O=C(c1cc(-c2ccc(Cl)cc2)on1)N1CCOCC1 — lower, -0.66
- COc1ccc(C(=O)N(CC2CCCO2)C(C(=O)NC2CCCC2)c2ccc(C)cc2)cc1OC (stereo unspecified) — higher, -0.186
- O=C(CN1C(=O)c2ccccc2C1=O)Nc1ccccc1C(=O)N1CCCC1 — lower, -0.434
- Fc1ccc(C2NC(=S)NC3=C2N2CCC3CC2)cc1 (stereo unspecified) — higher, -0.0689
- CCN(CC)S(=O)(=O)c1cccc(C(=O)N[C@H](C(=O)Nc2nc3ccccc3s2)C(C)C)c1 — higher, 0.326
- CCN(CC)S(=O)(=O)c1ccc(C(=O)C(C#N)c2ccccn2)cc1 (stereo unspecified) — higher, 0.707
- O=C(CCCN1C(=O)/C(=C/c2cccs2)SC1=S)NNC(=O)c1ccccc1O — higher, -0.15
- CCCC(=O)Nc1cccc(NC(=O)c2ccc([N+](=O)[O-])cc2Cl)c1 — higher, -0.236
- Cn1c(=O)c2c(nc(CN3CCN(c4ccccc4)CC3)n2CCc2ccccc2)n(C)c1=O — higher, -0.349
- COc1ccc2c(Cl)c(C(=O)NCCCn3ccnc3)sc2c1Cl — higher, -0.209
- Cc1cccn2cc(CNC(=O)C3CCCCC3)nc12 — higher, -0.0588
- Cc1c(NC(=O)C(CC(=O)O)NCc2ccco2)c(=O)n(-c2ccccc2)n1C (stereo unspecified) — higher, -0.257
- O=C(NCC(c1cccnc1)N1CCOCC1)Nc1ccccc1 (stereo unspecified) — higher, 0.0892
- COc1ccc(S(=O)(=O)NN=C2CCCCC2)cc1 — higher, 1.17
- CCCN1C(=O)c2ccccc2NC1c1ccc(OC)c(CSc2ccccn2)c1 (stereo unspecified) — lower, -0.778
- COC(=O)c1sccc1NC(=O)c1c(C)c(-c2cccc(Cl)c2)nc2ccccc12 — lower, -0.445
- O=C1Nc2c(c(=O)[nH]c(=O)n2-c2ccccc2)C1(Nc1ncccn1)C(F)(F)F (stereo unspecified) — higher, 0.239
- Cc1cccc(NC(=O)c2cn(-c3ccccc3)nc2-c2ccccc2)c1 — higher, -0.163
- COc1ccc(OC)c(/C=N/NC(=O)CC2C(=O)NN=C2C)c1 (stereo unspecified) — higher, -0.12
- O=S(=O)(NC1c2cccc3cccc(c23)C1N1CCNCC1)c1ccccc1 (stereo unspecified) — lower, -0.568
- COc1cccc(-c2nc(CS(=O)(=O)CC(=O)NCc3ccc(Cl)cc3)c(C)o2)c1 — higher, -0.253
- COC(=O)/C(=N/Nc1ccc(C)cc1)N1CCCc2ccccc21 — higher, -0.278
- O=c1ccn(-c2cccc(C(F)(F)F)c2)nc1-c1ccn(-c2cccc(Cl)c2)n1 — higher, -0.0868
- CSc1nc2nc(C(F)(F)F)cc(-c3ccccc3)n2n1 — higher, -0.221
- O=C1CN(C(=O)CSc2nnnn2-c2ccc(Cl)cc2)c2ccccc2N1 — higher, -0.16
- CC(C(=O)Nc1cccnc1)N1C(=O)C2C3C=CC(C3)C2C1=O (stereo unspecified) — higher, 0.119
- COCCCNC(=O)c1ccc2c(c1)CCN2S(C)(=O)=O — higher, 0.419
- COc1ccccc1-n1c(SCC(=O)NC2CCCCC2)nc2c(c1=O)SCC2 — lower, -1.47
- CN(CC(=O)Nc1ccc2c(c1)OCCO2)S(=O)(=O)c1cccc2cccnc12 — higher, -0.155
- CC(C)c1cc(Br)ccc1OCCCN1C(=O)NC(C)(C)C1=O — higher, -0.263
- COc1ccc(OC)c(-n2c(=S)[nH]c3cc(C(=O)N4CCC(C(N)=O)CC4)ccc3c2=O)c1 — higher, 0.171
- Clc1cccc(Cl)c1CO/N=C/c1c(-c2ccccc2)nc2n1CCS2 — higher, -0.177
- O=S1(=O)N=C(N(CCO)/N=C/C=C/c2ccccc2)c2ccccc21 — lower, -0.515
- CCOc1ccc(S(=O)(=O)N2CCN(c3ccccc3)CC2)c2cccnc12 — higher, 0.793
- CCOC(=O)C1=C(C)Nc2nc3ccccc3n2C1c1ccccc1 (stereo unspecified) — higher, 0.0404
- O=C(Cc1ccccc1)Nc1ccc(C(=O)NCC2COc3ccccc3O2)cc1 (stereo unspecified) — lower, -0.477
- Cc1ccc(S(=O)(=O)c2c(C)cc(C)nc2Cl)cc1 — higher, -0.0793
- CC(C)C(CO)NC(=O)CC(=O)NC(CO)C(C)C (stereo unspecified) — higher, 0.0738
- COC(=O)c1cc(NC2c3ccccc3C(=O)N2c2cccnc2)cc(C(=O)OC)c1 (stereo unspecified) — higher, 0.475
- Cc1ccc(/C=C2/NC(=O)N(Cc3ccccc3F)C2=O)o1 — higher, -0.045
- O=C(CCc1ccc(S(=O)(=O)NC2CCCCC2)cc1)N(Cc1ccccc1)Cc1ccccc1 — higher, -0.22
- O=C(O)CC(C(=O)Nc1ccc(Cl)c(Cl)c1)C1CCCO1 (stereo unspecified) — higher, -0.249
- CCn1c(CC(=O)Nc2cccc(Cl)c2Cl)nnc1SCCOc1ccc(OC)cc1 — lower, -1.5
- Cc1ccc(/C=N/n2c(-c3ccncc3)n[nH]c2=S)cc1 — higher, 0.0356
- O=C1C2C3C=CC(C4CC34)C2C(=O)N1/N=C/c1ccc(-c2ccc(F)cc2[N+](=O)[O-])o1 (stereo unspecified) — lower, -0.473
- Cc1ccc(-c2nc(-c3ccccc3)no2)cc1 — higher, 1.07
- CCOc1ccccc1CNc1ccc(N2CCOCC2)c(C(=O)O)c1 — lower, -0.456
- CCOC(=O)CNC(=O)CSc1nc(N(C)C)nc(N2CCOCC2)n1 — higher, -0.116
- CC(/C=C/c1ccco1)=N\NC(=O)c1cc(C)[nH]n1 — higher, -0.205
- O=C(NC(=S)Nc1ccc2c(c1)OCCO2)c1ccccc1 — higher, 2.12
- CC1(C)Cc2c(C#N)c(OCC(=O)c3ccc(Cl)cc3)nc(-c3ccoc3)c2CO1 — higher, -0.176
- CCC(CC)C(=O)Nc1cc(NC(=O)C(CC)CC)cc(C(=O)O)c1 — lower, -0.469
- COc1ccc(-c2nnc(N(C)C(=O)C3CCCO3)s2)cc1 (stereo unspecified) — lower, -0.795
- Cc1cc(NC(=O)CSc2nnc(NC(=O)C3CC(=O)N(c4ccccc4)C3)s2)no1 (stereo unspecified) — higher, -0.322
- CN1C(=O)N(C)C2C1N(CN1CCCCC1)C(=O)N2CN1CCCCC1 (stereo unspecified) — higher, -0.0397
- CCOC(=O)N1CCN(Cc2nc(-c3ccccc3)no2)CC1 — higher, -0.324
- CCOC(=O)CCCNC(=O)COC(=O)c1ccc(O)cc1 — lower, -0.506
- COC(=O)c1cc(=O)n(CCc2ccccc2)c(=Nc2ccc(F)cc2)s1 — higher, 0.432
- O=C(O/N=C1\CCCc2ccccc21)c1cccc(Cl)c1 — higher, 0.216
- C=CC12C=CC=CN1C(C(=O)OC)=C(C(=O)OC)C(C(=O)OC)=C2C(=O)OC (stereo unspecified) — higher, -0.272
- O=S(=O)(/C=C/c1ccccc1)Nc1ccc2c(c1)OCO2 — lower, -0.74
- CCOC(=O)Cn1nc(C)n(-c2ccccc2)c1=O — higher, 0.0364
- O=C(NNS(=O)(=O)c1ccc(Cl)cc1)c1cnn(-c2ccccc2)c1-n1cccc1 — higher, 0.0378
- CS(=O)(=O)NC1c2cccc3cccc(c23)C1Sc1nncn1/N=C/c1ccco1 (stereo unspecified) — lower, -0.475
- Cc1cc2cc(CN(Cc3cccs3)C(c3nnnn3C(C)(C)C)C(C)C)c3nnnn3c2cc1C (stereo unspecified) — higher, -0.0191
- CCc1ccc(N2C(=O)c3sc4nnc(-c5ccccc5)c(=O)n4c3C2=O)cc1 — lower, -0.743
- O=[N+]([O-])c1ccc(N2CCN(Cc3ccccc3)CC2)c(S(=O)(=O)N2CCOCC2)c1 — higher, -0.3
- COc1cc(C)nc(N2CCC(C(N)=O)CC2)n1 — higher, 0.0462
- COc1cccc(C(=O)NCC(=O)n2nc(C)cc2C)c1 — higher, 0.363
- Oc1ccc(N=Nc2cccc(C(F)(F)F)c2)cc1C=Nc1ccc(N2CCOCC2)cc1 — higher, -0.258
- Clc1ccc(-c2ccc(/C=N/Nc3nncc(-c4ccccc4)n3)o2)cc1 — higher, -0.0188

In the case of `CCn1nc(C(=O)OCC(=O)N2CCc3ccccc32)c2ccccc2c1=O`, the z-score is reported as active: -4.02.
With `Cc1ccc(-c2csc3nc[nH]c(=S)c23)cc1C` the z-score was active: 15.9.
With `CC1CCCCC1NC(=S)Nc1ccc(SC(F)F)cc1` (stereo unspecified) the z-score was active: 5.08.
